According to the supplement of paper PMC12217912:
The other results are listed elsewhere or left out. Sequences were assembled here from the parent chain. Inactive controls read about 0.05.

B1: TEV protease; numbered along this chain (parent)
chain: MGESLFKGPRDYNPISSSICHLTNESDGHTTSLYGIGFGPFIITNKHLFRRNNGTLVVQSLHGVFKVKDTTTLQQHLVDGRDMIIIRMPKDFPPFPQKLKFREPQREERICLVTTNFQTKSMSSMVSDTSCTFPSGDGIFWKHWIQTKDGQCGSPLVSTRDGFIVGIHSASNFTNTNNYFTSVPKNFMELLTNQEAQQWVSGWRLNADSVLWGGHKVFMVKPEEPFQPVKEATQL

Variants of: B1
Assay: raw area under fraction-flipped curve 0-4 h after induction (AUC4h, not background-subtracted), DNA-recorder readout of cleavage of the substrate (dimensionless); higher = more cleavage of the substrate by the protease variant
Settings: temperature: 34 °C; time window: 0-4 h after rhamnose induction
Description: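 In vivo DNA recorder in E. coli TOP10(DE3) ΔrhaA at 34 °C. Each TEVp single-site mutant (parent TEVp 0) is paired with a single-site variant of the 7-mer TEVs (canonical ENLYFQ|S). The substrate sits between flexible linkers in a Bxb1-sfGFP-TEVs-SsrA fusion, so cleavage stabilises Bxb1 and speeds flipping of a recombination array, read by NGS. The value is the raw area under the fraction-flipped curve over 0-4 h after rhamnose induction (AUC4h), with ≥20 reads per time point. It is not background-subtracted; inactive controls average about 0.047.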
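Further: Bxb1 expression induced with 0.2% (w/v) L-rhamnose at OD600 near 0.5, cultures sampled hourly, flipped fraction per protease–substrate barcode pair counted by paired-end Illumina sequencing.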

| Variant | area with substrate ENAYFQS | area with substrate ENCYFQS | area with substrate ENDYFQS | area with substrate ENEYFQS | area with substrate ENFYFQS | area with substrate ENGYFQS | area with substrate ENIYFQS | area with substrate ENPYFQS | area with substrate ENQYFQS | area with substrate ENSYFQS | area with substrate ENTYFQS | area with substrate ENYYFQS | area with substrate ENHYFQS | area with substrate ENKYFQS | area with substrate ENNYFQS | area with substrate ENRYFQS | area with substrate ENVYFQS | area with substrate ENWYFQS | area with substrate ENMYFQS |
| --- | --- | --- | --- | --- | --- | --- | --- | --- | --- | --- | --- | --- | --- | --- | --- | --- | --- | --- | --- |
| MGESLFKGPRDYNPISSSICHLTNESDGHTTSLYGIGFGPFIITNKHLFRRNNGTLVVQSLHGVFKVKDTTTLQQHLVDGRDMIIIRMPKDFPPFPQKLKFREPQREERICLVTTNFQTKSMSSMVSDTSCTFPSGDGIFWKHWIQTKDGQCGSPLVSTRDGFIVGIHSASNFTNTNNYFTSVPKNFMELLTNQEAQQWVSGWRLNTDSVLWGGHKVFMVKPEEPFQPVKEATQL [A207T] | 0.0585 | 0.0676 | 0.0707 | 0.0549 | 0.0816 | 0.0492 | 0.105 | 0.0576 | 0.0555 | 0.0634 | 0.101 | 0.0535 |  |  |  |  |  |  |  |
| MGESLFKGPRDYNPISSSICHLTNESDGHTTSLYGIGFGPFIITNKHLFRRNNGTLVVQSLHGVFKVKDTTTLQQHLVDGRDMIIIRMPKDFPPFPQKLKFREPQREERICLVTTNFQTKSMSSMVSDTSCTFPSGDGIFWKHWIQTKDGQCGSPLVSTRDGFIVGIHSASNFTNTNNYFTSVPKNFMELLTNQEAQQWVSGWRLNKDSVLWGGHKVFMVKPEEPFQPVKEATQL [A207K] | 0.0548 |  | 0.0643 | 0.0481 |  |  |  |  | 0.064 | 0.101 |  |  | 0.0757 | 0.0648 | 0.0581 | 0.066 | 0.0724 |  |  |
| MGESLFKGPRDYNPISSSICHLTNESDGHTTSLYGIGFGPFIITNKHLFRRNNGTLVVQSLHGVFKVKDTTTLQQHLVDGRDMIIIRMPKDFPPFPQKLKFREPQREERICLVTTNFQTKSMSSMVSDTSCTFPSGDGIFWKHWIQTKDGQCGSPLVSTRDGFIVGIHSASNFTNTNNYFTSVPKNFMELLTNQEAQQWVSGWRHNADSVLWGGHKVFMVKPEEPFQPVKEATQL [L205H] | 0.0614 |  | 0.0639 | 0.061 | 0.0497 | 0.0717 |  |  | 0.0542 |  | 0.0614 |  |  | 0.0588 | 0.0876 |  |  |  |  |
| MGESLFKGPRDYNPISSSICHLTNESDGHTTSLYGIGFGPFIITNKHLFRRNNGTLVVQSLHGVFKVKDTTTLQQHLVDGRDMIIIRMPKDFPPFPQKLKFREPQREERICLVTTNFQTKSMSSMVSDTSCTFPSGDGIFWKHWIQTKDGQCGSPLVSTRDGFIVGIHSASNFTNTNNYFTSVPKNFMELLTNQEAQQWVSGWRLNADSVLGGGHKVFMVKPEEPFQPVKEATQL [W212G] | 0.0699 | 0.0596 | 0.0653 | 0.0796 |  |  |  | 0.0551 | 0.0693 |  | 0.062 |  | 0.0527 | 0.0566 | 0.0512 |  |  | 0.052 |  |
| MGESLFKGPRDYNPISSSICHLTNESDGHTTSLYGIGFGPFIITNKHLFRRNNGTLVVQSLHGVFKVKDTTTLQQHLVDGRDMIIIRMPKDFPPFPQKLKFREPQREERICLVTTNFQTKSMSSMVSDTSCTFPSGDGIFWKHWIQTKDGQCGSPLVSTRDGFIVGIHSASNFTNTNNYFTSVPKNFMELLTNQEAQQWVSGWRLNADSVLWRGHKVFMVKPEEPFQPVKEATQL [G213R] | 0.0552 | 0.0661 | 0.055 | 0.0581 | 0.0592 | 0.0691 | 0.0542 | 0.0591 | 0.0578 | 0.0665 | 0.0602 |  | 0.0648 | 0.0548 | 0.0569 | 0.0565 | 0.0599 | 0.0593 | 0.057 |
| MGESLFKGPRDYNPISSSICHLTNESDGHTTSLYGIGFGPFIITNKHLFRRNNGTLVVQSLHGVFKVKDTTTLQQHLVDGRDMIIIRMPKDFPPFPQKLKFREPQREERICLVTTNFQTKSMSSMVSDTSCTFPSGDGIFWKHWIQTKDGQCGSPLVSTRDGFIVGIHSASNFTNTNNYFTSVPKNFMELLTNQEAQQWVSGWRLNADSVLWGGHKVFMVLPEEPFQPVKEATQL [K221L] | 0.0493 | 0.0523 | 0.0492 |  |  | 0.0707 | 0.124 | 0.0701 | 0.0543 | 0.0519 | 0.0566 | 0.0644 | 0.052 | 0.132 | 0.0608 | 0.0606 | 0.0685 | 0.0565 | 0.0627 |
| MGESLFKGPRDYNPISSSICHLTNESDGHTTSLYGIGFGPFIITNKHLFRRNNGTLVVQSLHGVFKVKDTTTLQQHLVDGRDMIIIRMPKDFPPFPQKLKFREPQREERICLVTTNFQTKSMSSMVSDTSCTFPSGDGIFWKHWIQTKDGQCGSPLVSTRDGFIVGIHSASNFTNTNNYFTSVPKNFMELLTNQEAQQWVSGWRLNADSVLWGGHKVFMVSPEEPFQPVKEATQL [K221S] | 0.0622 |  | 0.0545 | 0.0714 | 0.0815 | 0.0539 |  | 0.0502 | 0.0587 | 0.0588 | 0.0859 |  | 0.0362 | 0.0619 | 0.0665 | 0.0499 |  |  | 0.0563 |
| MGESLFKGPRDYNPISSSICHLTNESDGHTTSLYGIGFGPFIITNKHLFRRNNGTLVVQSLHGVFKVKDTTTLQQHLVDGRDMIIIRMPKDFPPFPQKLKFREPQREERICLVTTNFQTKSMSSMVSDTSCTFPSGDGIFWKHWIQTKDGQCGSPLVSTRDGFIVGIHSASNFTNTNNYFTSVPKNFMELLTNQEAQQWVSGWRLNADSVLWGGHKVFMGKPEEPFQPVKEATQL [V220G] | 0.0446 | 0.0703 | 0.0563 |  | 0.0694 | 0.0313 | 0.119 | 0.0909 | 0.0594 | 0.0633 | 0.0699 |  | 0.0624 |  | 0.0593 | 0.0563 | 0.0826 | 0.0406 | 0.0889 |
| MGESLFKGPRDYNPISSSICHLTNESDGHTTSLYGIGFGPFIITNKHLFRRNNGTLVVQSLHGVFKVKDTTTLQQHLVDGRDMIIIRMPKDFPPFPQKLKFREPQREERICLVTTNFQTKSMSSMVSDTSCTFPSGDGIFWKHWIQTKDGQCGSPLVSTRDGFIVGIHSASNFTNTNNYFTSVPKNFMELLTNQEAQQWVSGWRLNADSVLWGGHKVFMEKPEEPFQPVKEATQL [V220E] | 0.0591 | 0.072 |  | 0.0603 |  | 0.0731 |  | 0.0602 | 0.0516 | 0.0617 | 0.0706 | 0.0553 | 0.0667 | 0.0879 | 0.0727 | 0.0795 | 0.12 |  |  |
